For 93 compounds, inhibition results are on record in PubChem BioAssay AID485344 (National Center for Advancing Translational Sciences (NCATS), 2010).

Hit rate of the full screen: of about 340,000 compounds, about 6,900 (2%) were called active. No stated cut-off is given here; in the data, active means inhibition above about 30%; inactive means below that, where a call was filed. The entries are a selection whose mix differs from that of the whole data set. Entries without a call were filed so in the source.

This experiment addresses D(2) dopamine receptor (Homo sapiens) (UniProt P14416). Put plainly: HTS Assay for Allosteric Antagonists of the Human D2 Dopamine Receptor: Primary Screen for Antagonists. Further: 0% is about no effect. The note with it: HEK293 TREx D2 cells, calcium flux, dopamine EC80; at 10 µM; stronger effect = higher value. Put shortly: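 Antagonism is scored as inhibition of an EC80 dopamine-evoked calcium signal in a force-coupled, tetracycline-inducible HEK293 T-REx D2 line, with compound present 180 s before agonist.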
UniProt P14416, sequence (P14416 whole entry, looked up): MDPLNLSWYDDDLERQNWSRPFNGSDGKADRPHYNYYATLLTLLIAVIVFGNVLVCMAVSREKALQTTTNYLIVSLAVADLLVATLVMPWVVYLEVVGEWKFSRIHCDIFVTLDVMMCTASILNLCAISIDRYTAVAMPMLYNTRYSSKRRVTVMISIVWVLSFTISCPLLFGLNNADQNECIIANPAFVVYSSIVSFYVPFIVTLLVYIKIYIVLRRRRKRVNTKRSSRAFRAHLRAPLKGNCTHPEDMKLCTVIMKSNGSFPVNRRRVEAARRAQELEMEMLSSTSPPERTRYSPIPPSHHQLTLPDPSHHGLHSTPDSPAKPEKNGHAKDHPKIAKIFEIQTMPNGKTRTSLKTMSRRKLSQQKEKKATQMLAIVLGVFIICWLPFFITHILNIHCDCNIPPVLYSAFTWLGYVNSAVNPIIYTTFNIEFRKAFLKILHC
As for `CCCCOc1ccc(CN2C(=O)C(=O)c3cc(Br)cc(C)c32)cc1OC`, the inhibition – broadly, the relative decrease from the control value, in per cent – was 0.309%. `CCOc1ccccc1CNC(=O)C1CCCN(c2ncnc3onc(-c4ccc(F)cc4)c23)C1` (stereo not drawn): the inhibition is -2.29%. The value for `Cc1ccc(CN2CCc3nc(N4CCN(c5ccccc5F)CC4)ncc3C2)cc1C` was 18.9%; that for `Cc1cccc(C)c1-n1ncc(C(=O)Nc2ccc3c(c2)OCO3)c1C1CCN(C(=O)OC(C)(C)C)CC1` was -8.52%; that for `COc1cccc(-c2cc(C(F)(F)F)nc(NCCc3ccccc3)n2)c1` was -10.8%.

As to `CC(C)(Oc1ccc(Cl)cc1)C(=O)N1CCN(c2ccccn2)CC1`, the inhibition was active: 43%.

On to `OC(COc1c(F)cc(Br)cc1F)CN1CCN(c2ccc(F)cc2)CC1` (stereo not drawn), for which the inhibition is active: 70.9%. The value for `COc1ccccc1CCNC(=O)c1ccc2c(c1)c(C)c(C)n2Cc1ccc(Cl)cc1` was -2.98%.

Regarding `CCCCc1ccc(NC(=S)NCCO)cc1`, the inhibition is active: 30.9%. `CC1CN(Cc2csc(-c3ccc(Cl)cc3)n2)CC(C)O1` (stereo not drawn): the inhibition was active: 36.9%.

As to `O=C(NCc1ccccc1Cl)C1CCCN(C(=O)c2cnn(-c3ccccc3)c2-n2cccc2)C1` (stereo not drawn), the inhibition worked out at 6.28%. On to `COc1ccc(-n2c(=O)c3c4c(sc3n(Cc3ccccc3Cl)c2=O)CCC4)c(OC)c1`, for which the inhibition came to 0.109%. The value for `O=C(CCN1C(=O)CSc2ccccc21)Nc1ccc(OC(F)(F)F)cc1` was active: 51.4%; that for `COc1cccc(CNC(=O)CN(C)S(=O)(=O)c2ccc3[nH]c4c(c3c2)CCCC4)c1` was -10.6%. For the compound `Cc1cccc(OCC(=O)Nc2ccccc2OCc2cc(=O)n3ccccc3n2)c1`, the inhibition stood at 10.8%. As for `Cc1cccc(-c2nc3c(c(SCc4ccccc4Cl)n2)Cc2c(CO)cnc(C)c2O3)c1`, the inhibition is -15.8%. For the compound `COc1cc(Cl)c(C)cc1NC(=O)c1cc2c(Cl)nc3ccc(C)cc3c2s1`, the inhibition is -15%. For the compound `COc1cc2c(cc1OC)CN(C(=O)Nc1ccccc1Cl)CC2`, the inhibition is active: 34.7%.

For the compound `Cc1ccc(NS(=O)(=O)c2ccc3c(c2)CC(C)N3C(=O)C2CCC2)cc1Cl` (stereo not drawn), the inhibition was -6.64%. For the compound `CCOc1ccccc1NC(=O)c1c(NC(=O)C(C)Oc2ccc(Cl)cc2)sc2c1CCCCC2` (stereo not drawn), the inhibition is -2.84%. As to `CC(C)CC1N=C2c3ccccc3N=C(SCC(=O)NCCc3ccc(Cl)cc3)N2C1=O` (stereo not drawn), the inhibition came out at 10.8%. The value for `COc1ccc(-c2nc3cc(C)ccn3c2NC(=O)c2ccc(C)c(C)c2)cc1` was -9.88%; that for `CC(C)CCn1c(=O)c2sccc2n2c(CCCC(=O)NC(C)C)nnc12` was 26.7%; that for `CCn1cc(C(=O)N2CCN(c3ccc(F)cc3)CC2)c(=O)c2cc(S(=O)(=O)N(C)C3CCCCC3)ccc21` was -4.1%.

On to `CCOC(=O)C1=C(CN2CCCCC2)NC(=O)NC1c1cc(C)ccc1C` (stereo not drawn), for which the inhibition is 3.22%. The value for `COc1ccccc1N1CCN(C(CNC(=O)C(=O)NCc2ccc(C)cc2)c2cccnc2)CC1` (stereo not drawn) was 19.9%.

Regarding `CC(C)(C)c1ccc(OCCn2cc(C(=O)c3ccco3)c3ccccc32)cc1`, the inhibition was -2.61%. Turning to `CCc1cccc(NC(=O)C2CCCN(S(=O)(=O)c3cccs3)C2)c1` (stereo not drawn), the inhibition was 2.97%. Turning to `Cc1ccc(C2=CC(c3ccccc3F)n3c(nc4ccccc43)N2)cc1C` (stereo not drawn), the inhibition was -17.7%.

For the compound `Nc1ccccc1NC1=CC(=O)CC(c2ccco2)C1` (stereo not drawn), the inhibition is active: 30.9%. In the case of `CN(C)c1ccc(-n2c(CCC(=O)O)ccc2-c2ccccc2)cc1` it was 8.63%; in that of `COc1ccc(C2=NC(c3ccncc3)=Nc3ccc(Br)cc3N2)cc1`, 12.3%; in that of `COc1ccc(CC(=O)NCc2ccc3c(c2)CCN3C(=O)c2ccccc2)cc1OC`, 6.26%.

In the case of `Cc1oc(-c2cccc(Cl)c2)nc1CN1CCC(C(=O)NCCCN2CCN(c3ccc(F)cc3)CC2)CC1`, the inhibition was -5.97%. Take `O=C(CSc1nc2c(c(=O)[nH]1)CCC2)Nc1ccccc1C(F)(F)F`: the inhibition is 4.78%.

Consider `COc1ccc(S(=O)(=O)c2c(C)c(NS(=O)(=O)c3ccccc3)cc(C)c2O)cc1`, for which the inhibition is 8.25%.

For `COc1ccc(Cn2cc(C(=O)c3ccc(C)cc3)c(=O)c3cc(OC)c(OC)cc32)cc1`, the inhibition was -1.47%. Regarding `O=C(CCC(=O)N1CCOc2ccc(Cl)cc21)NCc1ccccc1`, the inhibition was active: 36.7%. In the case of `Cc1ccccc1Nc1c(-c2ccc(Cl)s2)nc2cccc(C)n12` it was 14.7%; in that of `O=[N+]([O-])c1ccc(/C=N/NC(=S)Nc2ccc(Cl)cc2Cl)s1`, active: 45.4%. The value for `COc1cc(C(c2c(C)[nH][nH]c2=O)c2c(C)[nH][nH]c2=O)ccc1OC(=O)c1cccc(C)c1` was 16.7%; that for `O=C(c1ccc2c(c1)CCCC2)N1CCN(c2nc3c(F)cccc3s2)CC1` was -20.3%; that for `CCOC(=O)C1CCCCN1S(=O)(=O)c1csc(C(N)=O)c1` (stereo not drawn) was 12.2%.

For `CCn1cc(C(=O)NCc2ccccc2)c(=O)c2cc(S(=O)(=O)N3CCc4ccccc4C3)ccc21`, the inhibition worked out at 12.4%.

With `O=c1c(-c2ccc(Cl)cc2)c(C(F)(F)F)oc2c(CN3CCCCC3)c(O)ccc12`, the inhibition is -12.2%. For `CCCC(CCC)C(=O)Nc1cc(-c2cn3cccnc3n2)ccc1OC`, the inhibition was found to be 0.774%. For `CCc1ccc(N2C(=O)CSC23C(=O)N(Cc2ccc(C)cc2)c2ccccc23)cc1` (stereo not drawn), the inhibition was determined as 5.64%.

On to `Cc1ccc(-c2cc(NC(=O)COc3ccc(Cl)cc3C)on2)cc1`, for which the inhibition is -7.55%. In the case of `CCOc1ccc(CCNC(=O)c2cc3c(s2)-c2ccccc2OC3)cc1OCC` it was -20.9%; in that of `O=C(NCc1ccc(Cl)cc1)C1CCN(S(=O)(=O)Cc2ccccc2)CC1`, 6.87%; in that of `COc1ccc(-c2cc(C(F)(F)F)nc(SCC(=O)N3CCC(C)CC3)n2)cc1`, 4.88%. Turning to `COc1cccc(OC)c1OCC(O)CN1CCN(c2ccccc2)CC1` (stereo not drawn), the inhibition is active: 115%.

Turning to `Cc1ccc(CNC(=O)C2CCN(S(=O)(=O)c3cc(-c4noc(C)n4)ccc3C)CC2)cc1`, the inhibition worked out at 9.51%. Consider `Cc1c(Cl)cccc1-n1nc(C)c2c(C(=O)NCc3ccccc3)cc(C3CC3)nc21`, for which the inhibition was -6.53%.

As for `Cc1nc2c(-c3ccccc3)c(C)nn2c(C)c1CCC(=O)NCc1ccc(F)cc1`, the inhibition worked out at 8.11%. Consider `Cn1c(=O)oc2cc(S(=O)(=O)Nc3ccccc3O)ccc21`, for which the inhibition is -1.15%. In the case of `CN(Cc1ccccc1)C(=O)CN1CCN(C(c2ccccc2)c2ccccc2)CC1` it was active: 50.6%; in that of `CC(CNC(=O)Cc1ccc(NC(=O)N2CCSc3ncccc32)cc1)c1ccccc1` (stereo not drawn), 6.61%; in that of `COC(=O)c1scc(-c2ccc(C)cc2)c1S(=O)(=O)Nc1ccc(N(C)C)cc1`, -3.89%. Consider `COc1ccc(-c2cn3c(n2)sc2cc(C(=O)Nc4cccc(OC)c4)ccc23)cc1`, for which the inhibition amounted to 13.1%.

In the case of `Cc1ccccc1NCc1cccn1-c1nnc(N2CCC(C)CC2)s1`, the inhibition was found to be 6.91%. In the case of `CCOC(=O)C1=C(CN2CCN(c3ccccc3F)CC2)NC(=O)NC1c1ccc(Cl)cc1` (stereo not drawn) it was 7.73%; in that of `O=C(NC1CC2CCC(C1)N2Cc1ccccc1)c1cccc(F)c1` (stereo not drawn), active: 71.5%.

`Cc1ccc(-n2c3c(c(=O)[nH]c2=O)C(NC(=O)c2ccccc2C)(C(F)(F)F)C(=O)N3)cc1` (stereo not drawn): the inhibition was -4.11%. For `COc1cccc(/C=C/c2onc(C)c2S(=O)(=O)N2CCC(C(=O)N3CCC(C)CC3)CC2)c1`, the inhibition is 2.05%. In the case of `COc1ccccc1N1CCN(C(=O)CSc2n[nH]c(-c3ccccc3)n2)CC1` it was 1.69%; in that of `Cc1cc2ccccc2n1-c1ccc(C(=O)N2CCC(C(=O)NCc3ccccc3Cl)CC2)s1`, -2.34%; in that of `CN1CCc2c(sc(NC(=O)c3ccc(C(=O)c4ccccc4)cc3)c2C(N)=O)C1`, active: 37.1%.

As for `O=C(/C=C\c1ccc2c(c1)OCO2)NC1CC(=O)N(c2cccc(F)c2)C1` (stereo not drawn), the inhibition was -7.65%.

As to `O=C(Nc1c(-c2ccc(F)cc2)nc2ccccn12)c1ccccc1F`, the inhibition was -2.51%. Take `Cc1cccc(CNC(=O)c2ccc(NC(=O)N3CC(C)Sc4ccccc43)cc2)c1` (stereo not drawn): the inhibition came to 2.63%. For `Nc1c(C(=O)c2ccc(F)cc2)sc(Nc2ccccc2F)c1S(=O)(=O)c1ccc(Br)cc1`, the inhibition amounted to 0.633%. The value for `Cc1ccc(S(=O)(=O)N2CCCCC2)cc1C(=O)N(C)CC(=O)Nc1cccc(F)c1` was active: 31.6%. On to `Cc1ccc(NC(=O)Cn2c(=O)n(-c3ccccc3)c(=O)c3ccc(C(=O)NCc4ccc5c(c4)OCO5)cc32)c(C)c1`, for which the inhibition is -11.3%. Turning to `CCOc1ccc(S(=O)(=O)N(CC(=O)Nc2ccc3c(c2)OCO3)c2ccccc2)cc1`, the inhibition was -5.43%. `CC(C)CN(CCNC(=O)CN1C(=O)CSc2ccc(S(=O)(=O)N3CCOCC3)cc21)CC(C)C`: the inhibition was -27.4%.

Consider `CCOc1ccc(C(=O)c2cn(CC(=O)Nc3ccc4c(c3)OCO4)c3ccc(OCC)cc3c2=O)cc1`, for which the inhibition was -1.61%.

Regarding `COc1ccc(-n2c(=O)c3c(c4cc(OC)ccc4n3C)n(Cc3cc(C)ccc3C)c2=O)cc1`, the inhibition came out at 5.45%. With `COC(=O)c1cccnc1-n1c(=O)c2cccnc2n(CC(=O)Nc2c(C)cc(C)cc2C)c1=O`, the inhibition was found to be 6.74%. In the case of `O=C(Cn1ncn2nc(-c3cccs3)cc2c1=O)NCc1cccc(Br)c1` it was 8.31%. For `Cc1ccc(Cl)cc1S(=O)(=O)N1CCC(C(=O)NC2CCN(Cc3ccccc3)CC2)CC1`, the inhibition was active: 31.1%.

Turning to `Cc1ccc(NC(=O)CN2C(=O)COc3ccc(S(=O)(=O)N4CCCCC4)cc32)cc1N(C)C`, the inhibition was -1.84%.

`COc1ccc(CN(Cc2ccco2)c2cnc(S(C)(=O)=O)nc2C(=O)Nc2ccc(F)cc2)cc1`: the inhibition was -1.41%. `COc1ccc(OC)c(-c2csc(-c3c(N)c(C(=O)c4ccccc4)n4ccccc34)n2)c1`: the inhibition is -0.867%. `CC(=O)c1ccc(Oc2nc(C)nc3c2oc2ccccc23)cc1`: the inhibition is -9.88%. On to `CCN(CC)c1ccc2cc(-c3nc(-c4ccc(OC)cc4)cs3)c(=O)oc2c1`, for which the inhibition is active: 71%. The value for `CCOC(=O)c1sc(/N=C/c2c(O)ccc3ccccc23)cc1C` was active: 31.4%. Regarding `COc1ccc(N2CCN(S(=O)(=O)c3c(C)[nH]c(=O)[nH]c3=O)CC2)cc1`, the inhibition was found to be 0.617%. `COc1ccc(CCNC(=O)C(=O)Nc2ccc(C)cc2)cc1OC`: the inhibition was -10.4%. On to `CCN(C(=O)c1cc2cc3ccc(OC)cc3nc2o1)c1cccc(C)c1`, for which the inhibition is -18.4%.

`Cc1ccc(C)c(NC(=O)CSc2nc(-c3ccccc3)cc(=O)[nH]2)c1`: the inhibition was -1.19%. The value for `CCCCn1c(=O)c2oc3ccccc3c2n(CC(=O)Nc2cccc(Cl)c2C)c1=O` was 6.08%; that for `CCc1ccccc1NC(=O)C1CCN(S(=O)(=O)c2ccc3[nH]c(=O)ccc3c2)CC1` was -2.4%.
